# Source: PMC4336329 (PLoS ONE, 2015)
# Among all 310,000 compounds or so, about 2,200 (0.71%) showed an effect of 50% or more. Effects have a minus sign here. The list shows a part of the results.
# Biological target: human ether-à-go-go-related gene (hERG) potassium channel (human, UniProt Q12809)
# Assay: primary screen, population patch clamp on CHO cells stably expressing hERG
# human ether-à-go-go-related gene (hERG) potassium channel, sequence (Q12809 whole entry, looked up): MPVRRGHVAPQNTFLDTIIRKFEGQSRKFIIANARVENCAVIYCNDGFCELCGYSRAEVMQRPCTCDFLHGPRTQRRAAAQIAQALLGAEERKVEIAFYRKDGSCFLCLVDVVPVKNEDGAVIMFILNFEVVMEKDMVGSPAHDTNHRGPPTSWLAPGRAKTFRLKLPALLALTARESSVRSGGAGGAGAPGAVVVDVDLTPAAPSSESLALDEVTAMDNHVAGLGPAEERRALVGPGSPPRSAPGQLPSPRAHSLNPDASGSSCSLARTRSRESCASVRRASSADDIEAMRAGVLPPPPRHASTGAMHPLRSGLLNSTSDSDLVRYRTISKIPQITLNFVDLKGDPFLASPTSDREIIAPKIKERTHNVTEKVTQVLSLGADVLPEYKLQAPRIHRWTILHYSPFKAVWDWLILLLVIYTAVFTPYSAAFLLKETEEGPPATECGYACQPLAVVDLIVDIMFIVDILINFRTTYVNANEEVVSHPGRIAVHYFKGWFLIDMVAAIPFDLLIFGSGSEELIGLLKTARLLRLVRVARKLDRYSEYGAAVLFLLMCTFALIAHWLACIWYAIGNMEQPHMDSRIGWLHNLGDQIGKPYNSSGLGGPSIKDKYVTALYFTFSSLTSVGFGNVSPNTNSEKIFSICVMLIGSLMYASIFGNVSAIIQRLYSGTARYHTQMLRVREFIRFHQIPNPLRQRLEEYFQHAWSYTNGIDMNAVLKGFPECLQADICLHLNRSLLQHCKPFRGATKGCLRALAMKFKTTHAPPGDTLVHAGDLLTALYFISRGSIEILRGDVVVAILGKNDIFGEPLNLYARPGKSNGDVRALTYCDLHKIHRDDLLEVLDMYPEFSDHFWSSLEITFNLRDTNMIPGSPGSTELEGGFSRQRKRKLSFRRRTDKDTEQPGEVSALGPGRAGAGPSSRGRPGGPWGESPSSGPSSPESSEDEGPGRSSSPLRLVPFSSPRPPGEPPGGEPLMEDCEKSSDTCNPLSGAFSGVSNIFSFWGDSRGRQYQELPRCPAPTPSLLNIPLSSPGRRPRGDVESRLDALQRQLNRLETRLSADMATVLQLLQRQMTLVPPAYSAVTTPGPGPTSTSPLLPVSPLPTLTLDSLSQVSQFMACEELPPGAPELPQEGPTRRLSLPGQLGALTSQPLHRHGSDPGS
row,Structure (SMILES),"hERG current change (%, negative = inhibition) at 1uM [%]"
1,Cc1c(O)c(CN2CCCC2)cc2c3c(c(=O)oc12)CCC3,15.9
2,Cc1sc(NC(=O)c2ccccc2F)c(CN2CCCCC2C)c1C (stereo not shown),3.89
3,COc1ccc(-c2nnc(SCCC(=O)O)n2-c2ccccc2)cc1OC,3.26
4,CCc1ccccc1OCCCN1CCCC1.O=C(O)C(=O)O,3.26
5,Cn1c(=O)c([N+](=O)[O-])c(NCCCn2ccnc2)c2ccccc21,16.6
6,O=C(CSc1n[nH]c(-c2ccccc2)n1)c1ccc(O)c(O)c1,1.7
7,COC(=O)CC1SC(=O)NC1=Nc1ccccc1 (stereo not shown),9.45
8,O=C(NNc1nc(=O)c2cccnc2s1)c1ccccc1O,13.5
9,CN(CC(=O)NCc1ccc(F)cc1)CC(=O)Nc1ccc(Cl)c(C(F)(F)F)c1,8.44
10,O=C(Nc1nc2ccc(Br)cc2s1)c1ccco1,13.6
11,COc1ccc(NC(=O)C(Cc2ccccc2)n2cccc2)cc1 (stereo not shown),6.16
12,CC(C)[C@H](NC(N)=O)C(=O)NCCc1ccc(Cl)cc1,8.08
13,CC1=C(C(=O)OCc2ccc(C)cc2)C(c2ccc(O)c([N+](=O)[O-])c2)NC(=O)N1 (stereo not shown),3.54
14,O=C(Nc1ccc(Cl)cc1)Nc1ccccc1CC[N+](=O)[O-],15.9
15,CN(CC(=O)Nc1ccc(F)c(F)c1F)C(=O)CCc1nc2sc3c(c2c(=O)[nH]1)CCCC3,3.41
16,O=C(Nc1ccccc1)Nc1nnc(Cc2ccc([N+](=O)[O-])cc2)s1,5.51
17,Cn1nc(C(F)(F)F)c(-c2ccc(Br)cc2)c1NC(=O)CSCC(=O)O,-3.38
18,CC(C)Oc1ccc(CNC(=O)c2ccc3c(c2)N(C)CCS3)cc1,3.61
19,CC(=O)NN1C(=O)c2ccccc2NC1c1cccc([N+](=O)[O-])c1 (stereo not shown),6.34
20,COc1cc(/C=C(\NC(=O)c2ccccc2)C(=O)Nc2cccc(O)c2)c([N+](=O)[O-])cc1OC,3.3
21,CCc1ccccc1NS(=O)(=O)c1cc2c(cc1C)n(C)c(=O)c(=O)n2C,2.08
22,CC(C)c1ccc(NC2CCCN(C(=O)c3n[nH]c4c3CCC4)C2)cc1 (stereo not shown),4.97

row,Structure (SMILES),"hERG current change (%, negative = inhibition) at 1uM [%]"
1,Oc1ccc(Br)cc1CN1CCN(c2ccccc2)CC1,16.6
2,CCn1cc(CN2CCN(Cc3ccc(OC)c(C)c3C)C(CCO)C2)c(C)n1 (stereo not shown),13.7
3,O=C(NCCNC(=O)c1cc(OCC(F)(F)F)ccc1OCC(F)(F)F)Nc1ccc(OC(F)(F)F)cc1,9.81
4,COc1ccc(Cc2nnn(CC(=O)O)n2)cc1,5.71
5,O=C(Nc1ccc(F)cc1)c1ccc2c(=O)n(CC3CCCO3)c(=S)[nH]c2c1 (stereo not shown),17.9
6,COc1ccc(C2c3ccc4ccccc4c3Oc3ncn4nc(Cc5ccccc5)nc4c32)cc1OC (stereo not shown),11.1
7,Cc1cccc(NC(=O)c2cc(-c3ccco3)nc3ccccc23)n1,9.09
8,CC(=O)c1cccc(NC(=O)CN(C)S(=O)(=O)c2cccc3nsnc23)c1,4.29
9,O=C(NCC1CC1)Nc1ccc(Cl)cc1,16.2
10,CN(C)S(=O)(=O)c1cccc(C(=O)NCC2(N3CCOCC3)CCCCC2)c1,4.99
11,Cc1nc2ccccc2c2oc(C(=O)NC3CC3)cc12,9.53
12,O=C(CSc1nnc(Cn2nnc(-c3ccccc3)n2)n1-c1ccccc1)Nc1ccc(F)cc1,6.77
13,CCOc1ccc(C(=O)Nc2c3c(nn2-c2ccc(C)cc2)CS(=O)C3)cc1OCC (stereo not shown),12.8
14,Cc1oc(-c2ccccc2F)nc1CS(=O)(=O)CC(=O)NC1CCCC(C)C1C (stereo not shown),5.89
15,O=C(CN1C(=O)COc2ccccc21)N(Cc1ccc2c(c1)OCO2)CC1CCCO1 (stereo not shown),3.66
16,Cc1ccc(N(C)S(=O)(=O)c2nnc(NC(=O)c3ccco3)s2)cc1,10.7
17,O=C(c1cc2cc(F)ccc2[nH]1)N1CCN(c2ccc(F)cc2)CC1,-4.71
18,COc1cccc(C2CC3C(=O)C=CC2N3Cc2ccccc2)c1 (stereo not shown),9.39
19,CCOC(=O)/C=C1/SCC(=O)N1CC(=O)Nc1cccc(F)c1,8.36
20,O=S(=O)(Nc1nc(SCc2ccc(Cl)cc2)n[nH]1)c1ccc(F)cc1,9.11
21,COc1ccc(CNC(=O)[C@H](C)NC(=O)[C@@H]2Cc3ccccc3CN2)cc1,18.1
